These results are taken from the supplement of paper PMC3334620.

In all, about 33,000 sequences were measured (“E-score (-0.5 to 0.5)”: median about -0.012, highest 2% from about 0.29 on). The list shows a part of the results.

The test concerns the target T1, Ybr033w (UniProt P38073).
T1 sequence: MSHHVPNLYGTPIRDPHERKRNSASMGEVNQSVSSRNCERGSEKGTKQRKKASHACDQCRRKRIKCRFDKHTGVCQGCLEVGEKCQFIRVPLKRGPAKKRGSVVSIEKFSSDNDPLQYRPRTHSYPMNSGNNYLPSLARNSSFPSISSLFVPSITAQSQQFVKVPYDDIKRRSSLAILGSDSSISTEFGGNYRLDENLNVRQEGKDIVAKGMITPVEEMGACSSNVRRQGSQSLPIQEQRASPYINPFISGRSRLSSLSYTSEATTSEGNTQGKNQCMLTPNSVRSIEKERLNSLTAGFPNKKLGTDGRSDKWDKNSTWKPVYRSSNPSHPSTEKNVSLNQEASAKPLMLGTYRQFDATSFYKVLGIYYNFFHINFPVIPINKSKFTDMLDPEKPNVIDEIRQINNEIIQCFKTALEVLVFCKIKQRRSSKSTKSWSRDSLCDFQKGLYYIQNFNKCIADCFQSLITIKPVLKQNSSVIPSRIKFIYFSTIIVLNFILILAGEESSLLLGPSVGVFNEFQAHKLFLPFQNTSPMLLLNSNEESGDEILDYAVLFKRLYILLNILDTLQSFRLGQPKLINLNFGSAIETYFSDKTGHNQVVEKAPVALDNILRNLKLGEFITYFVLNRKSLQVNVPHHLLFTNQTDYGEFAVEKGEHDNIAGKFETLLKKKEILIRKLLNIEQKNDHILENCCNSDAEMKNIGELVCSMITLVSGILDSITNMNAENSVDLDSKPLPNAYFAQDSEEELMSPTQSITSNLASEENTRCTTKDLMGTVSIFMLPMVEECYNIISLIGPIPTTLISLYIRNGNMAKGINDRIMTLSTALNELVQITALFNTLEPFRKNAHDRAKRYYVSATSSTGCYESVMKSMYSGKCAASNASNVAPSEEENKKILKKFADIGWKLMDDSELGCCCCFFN
Briefly: PBM E-score (8-mer binding enrichment) (E-score (-0.5 to 0.5)); higher = stronger / more preferred TF binding; most listed sequences are background and not binding sites. Conditions: protein concentration: 200 nM; construct: GST-full length. The protocol:
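Universal 'all 10-mer' protein binding microarrays (Agilent AMADID 015681) probed with GST-tagged S. cerevisiae TFs (full-length or DBD) made by in vitro transcription/translation (PURExpress), about 100-200 nM. Bound TF was detected with fluorescent anti-GST. Each ungapped 8-mer (which stands for itself and its reverse complement) is scored by the PBM enrichment score (E-score), a modified Wilcoxon-Mann-Whitney statistic from -0.5 to +0.5, computed with the Universal PBM Analysis Suite. Scale: above 0.35 generally sequence-specific binding.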
Regarding GCAAGTGA, the “PBM E-score” value is -0.0168. As for AGGTTACA, the figure is 0.0611; as for ATTAGCCA, 0.0882; as for GTCTATCA, 0.0657.

Consider CCGGGGAC, for which the “PBM E-score” value is -0.262.

Consider ACATGATA, for which the “PBM E-score” value is 0.32.

ACAGGAAA: the “PBM E-score” value was determined as 0.278. For ACCTCGAA, the “PBM E-score” value is 0.0549. With CCCCTCAA the figure was -0.187; with AAGGTGTG, -0.196; with GGGCTTAC, -0.177.

Regarding ACAGGGCT, the “PBM E-score” value was -0.224. In the case of CTACGTCC, the “PBM E-score” value is -0.241. With GTACCCCA the figure was -0.0622; with ACATTACC, -0.0397. With ATTTAAGA the figure was 0.0567. As for ACGTAGCC, the figure is -0.252; as for ATACCTTA, 0.0128. For TAAGGCAA, the “PBM E-score” value was determined as 0.0506. For AGTGTTAG, the “PBM E-score” value amounted to 0.0778. With TCAGGCCA the figure was -0.0114. As for CCACGGCA, the figure is -0.0768; as for AGTCATTG, -0.00289; as for ACAGGGAG, -0.131. With GGCTGTCA the figure was -0.0424; with AGTGCAGG, -0.0888.

As to CCGAACTC, the “PBM E-score” value is -0.0175. As for AGATACCA, the figure is 0.229; as for CCATGTAA, 0.0138; as for AGCGGAAA, 0.106. Regarding ACTCTCAT, the “PBM E-score” value was 0.0553. As for ACCAATTG, the figure is -0.00748; as for ATCTGCGG, 0.0239. As for CTCACAGC, the figure is -0.138; as for CACCGAAA, 0.042. As to ATCCCCAG, the “PBM E-score” value is -0.153.

For ACGCCTCC, the “PBM E-score” value is -0.165. Consider AGAACCGG, for which the “PBM E-score” value amounted to 0.0155. For AAATCCTA, the “PBM E-score” value was 0.126. Take ACTGAAGA: the “PBM E-score” value was determined as 0.0163.

AGCCGTTG: the “PBM E-score” value is -0.0509. As for AGGGGGAG, the “PBM E-score” value is -0.27. With CCGTTGCC the figure was -0.27. As for CCCGGCGC, the figure is -0.245; as for ATCTGAAT, 0.138. In the case of AGAGATTA, the “PBM E-score” value came out at 0.195. As for ACCCGACG, the figure is -0.159. Take GCGCCTAA: the “PBM E-score” value is -0.0559. Turning to ACTAACCA, the “PBM E-score” value is 0.11.

As for CATAGGAG, the “PBM E-score” value was -0.103. On to CATGGTGG, for which the “PBM E-score” value was -0.102. With GCAGACCC the figure was -0.343; with CGTATTCC, -0.01; with AATCTTAC, 0.137. With AGTCCATA the figure was -0.028; with CGGCAGCC, -0.213. With ACTCGGCT the figure was -0.0995. With GATCCGAC, the “PBM E-score” value was -0.134.

Consider AGCTTGCA, for which the “PBM E-score” value is -0.0609. With AGTCTTAC the figure was -0.0512; with ACGTCCGA, 0.0242; with CACGAGCC, -0.141. With AAGTTTGA, the “PBM E-score” value is 0.115. Turning to AATCGTGT, the “PBM E-score” value is 0.00705.

Take AAGATGTC: the “PBM E-score” value turned out to be 0.00552. Turning to AAGCACAT, the “PBM E-score” value is -0.0363.

For the sequence CTTTCCAA, the “PBM E-score” value turned out to be 0.0794. AGACGTCA: the “PBM E-score” value was -0.199.

As for AACTCGGA, the “PBM E-score” value is -0.0656. Consider ACAATTTA, for which the “PBM E-score” value is 0.225. With AACGCACG the figure was -0.0229; with TCACACAA, 0.126. With GAATCTGA the figure was -0.0945; with CTCCAGGC, -0.266. With CTTGCGGC the figure was 0.125. Take GGCAGCAA: the “PBM E-score” value is -0.13. AATCCCGG: the “PBM E-score” value turned out to be 0.0331.

In the case of GCGAACGA, the “PBM E-score” value is 0.0835. With CTTCTGCA, the “PBM E-score” value is 0.0159.

For GGCCGGCC, the “PBM E-score” value is -0.274. With ACACCCTC the figure was -0.202; with ATGCGACA, 0.0689; with CGAGCGAG, 0.214. With GTAAGGAA the figure was 0.12; with CCGCTGGA, 0.0956. With CGTAATAC the figure was 0.186.
